# Experimental data taken from the supplement of paper PMC4166925.
# ± gives the standard deviation of the averaged measurements. Over roughly 33,000 sequences, “E-score (dimensionless, -0.5 to 0.5)” has its median near -0.046; the highest 2% begin near 0.36. The list shows a part of the results.
# Tested on: T1, SpTbr T-box DNA-binding domain (GST fusion)
# T1 sequence: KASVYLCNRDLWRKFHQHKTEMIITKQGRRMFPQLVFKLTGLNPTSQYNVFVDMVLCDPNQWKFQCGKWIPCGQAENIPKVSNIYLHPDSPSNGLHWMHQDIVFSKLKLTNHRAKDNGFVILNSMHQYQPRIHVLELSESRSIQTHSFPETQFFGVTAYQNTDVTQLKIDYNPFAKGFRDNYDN
# Experiment: PBM E-score of 8-mer (E-score (dimensionless, -0.5 to 0.5)); Tbr is Tbrain of the sea star Patiria miniata (Pm) or the sea urchin Strongylocentrotus purpuratus (Sp); higher = stronger binding preference; most listed sequences are background and not binding sites
# Conditions: the construct has about 5 more residues each side
# Method in brief: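 Universal Agilent oligonucleotide arrays, made double-stranded by primer extension, were incubated with 200 nM GST-fused Tbr T-box DNA-binding domain in PBS (pH 7.5). The protein was expressed in BL21 E. coli at 20 °C and purified by glutathione affinity chromatography. After scanning and quantification, the Universal PBM Analysis Suite assigned an enrichment E-score to each ungapped 8-mer, averaged over duplicate arrays.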
row,Sequence,PBM E-score of 8-mer
1,GCCGTTCC,-0.096 ± 0.054
2,ATTGGCAG,-0.0228 ± 0.077
3,TATCTTGA,-0.194 ± 0.023
4,CAGCAAAG,-0.169 ± 0.02
5,ACGCTGCC,0.0634 ± 0.0072
6,AAACAATA,0.0101 ± 0.019
7,AGTCTCTC,-0.105 ± 0.029
8,GTCTCGAA,-0.133 ± 0.032
9,CCTAAGCC,-0.179 ± 0.099
10,CCCGAACC,-0.148 ± 0.026
11,CAAACCAG,-0.188 ± 0.026
12,CCGGTGCG,0.142 ± 0.052
13,CAGTGGTC,-0.126 ± 0.069
14,GGTCCTGA,-0.164 ± 0.037
15,GGTAACAC,0.435 ± 0.0032
16,CCTGGTAG,-0.198 ± 0.016
17,CCTTATAC,-0.12 ± 0.031
18,CAGTCACG,0.169 ± 0.03
19,CACACGCA,0.336 ± 0.019
20,CACACCGG,0.175 ± 0.059
21,AAATATTT,-0.0371 ± 0.088
22,CTGCTGGC,0.00894 ± 0.062
23,ACCGTCCG,-0.0723 ± 0.023
24,AATTTTCA,-0.0285 ± 0.04
25,GACACTCA,0.306 ± 0.024

row,Sequence,PBM E-score of 8-mer
1,CCACTCTA,-0.0297 ± 0.03
2,ACTCCACT,-0.0495 ± 0.03
3,CTGCCAGA,-0.12 ± 0.09
4,ACAGCTTG,0.066 ± 0.049
5,TAATGCGA,0.0911 ± 0.011
6,CTTTCACC,0.0179 ± 0.03
7,ATATACCG,-0.0559 ± 0.021
8,CGCAGCTA,0.0892 ± 0.037
9,AGTACACC,0.0392 ± 0.046
10,TCCTACGA,-0.0908 ± 0.04
11,TTCCCGAA,-0.122 ± 0.0038
12,AAGCTCTC,-0.0414 ± 0.0074
13,AGTGGGGA,0.212 ± 0.025
14,ATATTTTG,-0.077 ± 0.034
15,ACTGTGTA,0.0693 ± 0.0096
16,AGTTACTC,0.0155 ± 0.023
17,ACGCTATA,-0.013 ± 0.012
18,ATATATAA,-0.0111 ± 0.082
19,AAATTGAC,0.118 ± 0.026
20,CCTTTTAG,0.0506 ± 0.044
21,CCCGTATA,0.0364 ± 0.069
22,ATGTCTCA,-0.0324 ± 0.021
23,ATGCGAGC,0.0862 ± 0.026
24,ACTCTGCT,0.0159 ± 0.0053
25,CCACACTC,0.374 ± 0.015

row,Sequence,PBM E-score of 8-mer
1,GCACGTAC,0.203 ± 0.0061
2,ACACTTTC,0.402 ± 0.027
3,ATACAAAA,-0.141 ± 0.011
4,GCTGTGTA,-0.0634 ± 0.0096
5,CTCTAAGC,0.0354 ± 0.02
6,ACAAAGAC,-0.0872 ± 0.0088
7,CATAGGGA,-0.0928 ± 0.051
8,CCCCCTCA,-0.05 ± 0.015
9,CCGAATAG,-0.0447 ± 0.023
10,CATCAGTC,-0.185 ± 0.051
11,ACCTAGGC,0.0633 ± 0.063
12,ACGCAGTG,0.0522 ± 0.0037
13,ACCCCAAC,0.1502 ± 0.00033
14,ACGTGGAT,-0.0439 ± 0.063
15,ACGGTACC,-0.0547 ± 0.055
16,ATGTACAA,-0.233 ± 0.066
17,ACAATATA,0.178 ± 0.0078
18,CTATGCAA,-0.0745 ± 0.007
19,CTCCAGTA,-0.201 ± 0.032
20,CGCTCCTC,0.126 ± 0.0045
21,TAACCAGA,-0.055 ± 0.015
22,ACTGCCAT,-0.0515 ± 0.043
23,CGTTCCGA,-0.0562 ± 0.0032
24,ACCCTACG,0.015 ± 0.025
25,AGTCATAC,-0.0559 ± 0.00085

row,Sequence,PBM E-score of 8-mer
1,ACCGGGAT,-0.0571 ± 0.0096
2,GCACATCC,0.137 ± 0.0032
3,GTCGCAAA,0.0958 ± 0.038
4,ATCCTCTC,-0.0284 ± 0.025
5,GGGAGGCA,-0.156 ± 0.057
6,ACAAAGAT,0.0358 ± 0.005
7,AGGCTGTA,-0.0947 ± 0.068
8,CGTACCCC,-0.144 ± 0.057
9,ACATTATC,-0.00408 ± 0.066
10,AATTCCTA,-0.301 ± 0.025
11,CTAGGCAG,-0.154 ± 0.0063
12,CCACAACA,0.234 ± 0.015
13,ACACCGGT,0.246 ± 0.055
14,ACATGGAA,-0.0968 ± 0.046
15,GAGTCACA,0.295 ± 0.022
16,CGACCAGC,0.0453 ± 0.1
17,AGTCTTAA,-0.229 ± 0.087
18,CCATAACA,-0.0336 ± 0.029
19,ATTTCTAA,-0.0565 ± 0.021
20,AGCGCGAC,0.253 ± 0.026
21,CCCAGAAC,-0.114 ± 0.022
22,ATTGGGTC,-0.0691 ± 0.04
23,ACCGCTCG,-0.107 ± 0.044
24,CTAGCTAA,0.041 ± 0.025
25,GTTGAGTA,-0.178 ± 0.034

row,Sequence,PBM E-score of 8-mer
1,AATCCTAC,-0.307 ± 0.011
2,CATCAAGC,0.0303 ± 0.0029
3,AGTCCAGC,-0.237 ± 0.042
4,ATTCGGCA,-0.00275 ± 0.039
5,CGATTCCA,-0.0469 ± 0.074
6,AACATTCC,-0.147 ± 0.026
7,AACCTTTG,-0.131 ± 0.041
8,GGCCGCCC,-0.0386 ± 0.049
9,GGTTAACC,-0.254 ± 0.1
10,AAGCGTCA,0.357 ± 0.0055
11,ATGAAACC,-0.124 ± 0.0061
12,CGAGGTTC,-0.0319 ± 0.086
13,AGGTTACC,-0.0452 ± 0.017
14,CGGAGTTC,-0.221 ± 0.026
15,AATTGTGA,0.313 ± 0.033
16,AGTCCCAA,-0.336 ± 0.029
17,TGTGAGAA,0.4336 ± 0.0026
18,TCCACCCA,-0.229 ± 0.026
19,GAGAGTCA,-0.0956 ± 0.025
20,ACGGGATC,-0.0828 ± 0.015
21,TAAGTCTA,-0.0674 ± 0.11
22,GCACTGAA,0.119 ± 0.057
23,ATCAGCTC,-0.229 ± 0.056
24,ATGTAGTA,-0.225 ± 0.094
25,CGGCCCCC,-0.229 ± 0.006

row,Sequence,PBM E-score of 8-mer
1,TGTTGAAA,0.245 ± 0.068
2,CTTTAGGA,-0.251 ± 0.12
3,CTAACCCA,0.123 ± 0.062
4,GGGATTTA,-0.306 ± 0.058
5,AAGCTGTG,0.2503 ± 0.0023
6,ATGAGCTA,-0.276 ± 0.025
7,ACCATCAT,-0.259 ± 0.11
8,GTTAAATA,0.1 ± 0.038
9,CAGCACGA,0.14 ± 0.039
10,GAACGGCA,-0.067 ± 0.0073
11,GCCGCTAC,0.0759 ± 0.0049
12,AGTATGTG,0.119 ± 0.04
13,CACGTAAC,0.0244 ± 0.006
14,GAACAAAA,-0.0265 ± 0.017
15,TCTTTGAA,-0.0683 ± 0.06
16,CACTATCA,0.314 ± 0.0061
17,ATTTCTAG,-0.155 ± 0.0062
18,ACCCAGGA,-0.231 ± 0.048
19,CCCACATA,-0.066 ± 0.045
20,CAGTTCAA,-0.245 ± 0.077
21,AACCAAAA,-0.103 ± 0.062
22,CGCTCCGC,-0.0832 ± 0.027
23,CCAGCACA,0.00791 ± 0.021
24,TAGGCTAA,-0.227 ± 0.023
25,GTAGTGAA,0.117 ± 0.025

row,Sequence,PBM E-score of 8-mer
1,CACGCGAA,0.258 ± 0.0049
2,CACAAGTG,0.38 ± 0.016
3,AATCTGCA,0.0571 ± 0.0002
4,ATCCTTTA,-0.0826 ± 0.0073
5,ATTTATGA,-0.133 ± 0.026
6,ACGGTTAA,0.00031 ± 0.0088
7,ATGATCGG,-0.241 ± 0.066
8,GTGTATGA,-0.0691 ± 0.0075
9,AGAGGTAT,-0.118 ± 0.034
10,AAATTATC,-0.0228 ± 0.092
11,CGTTTGAC,0.195 ± 0.0035
12,GACGTAAC,-0.0742 ± 0.014
13,GTGTAGGA,0.164 ± 0.047
14,AGATTGAC,0.0858 ± 0.031
15,ACAGGCGC,0.168 ± 0.1
16,AGCAGAAG,-0.0929 ± 0.013
17,GAAGGATA,-0.0822 ± 0.079
18,GAGCGCAA,-0.0387 ± 0.044
19,TCGTATCA,0.129 ± 0.031
20,GCGGGTTA,0.0769 ± 0.054
21,CGAGTCAC,0.0629 ± 0.097
22,CCGCGAGA,0.224 ± 0.037
